# From the supplement of paper PMC4604168 (melanoma cell lines)
# The list shows a part of the results. Repeats are few or missing, and single values can be far off.
# What was measured:
# Assay in all cases: cell count relative to DMSO control; melanoma cells; higher = more viable cells
# Settings in all cases: library dose: low library concentration; 72 h
# [1] = system: MZ2-MEL
# [2] = system: MeWo
# [3] = system: RPMI7951
# [4] = system: RVH-421
# [5] = system: SkMel28
# [6] = system: SkMel2
# [7] = system: SkMel30
# [8] = system: UACC62
# [9] = system: WM115
# [10] = system: WM1716
# [11] = system: WM1745
# [12] = system: WM3526
# [13] = system: WM3619
# [14] = system: WM451Lu
# 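Also: cell number obtained by counting DAPI-stained nuclei in high-throughput microscope images with image analysis software, screen run in 1,536-well plates.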
Compound,cell count [1],cell count [2],cell count [3],cell count [4],cell count [5],cell count [6],cell count [7],cell count [8],cell count [9],cell count [10],cell count [11],cell count [12],cell count [13],cell count [14]
"O=C(/C=C/c1cccnc1)NCCCCC1CCN(C(=O)c2ccccc2)CC1 + CNC(=O)c1cc(Oc2ccc(NC(=O)Nc3ccc(Cl)c(C(F)(F)F)c3)cc2)ccn1 [sorafenib] (first compound 0.01 µM, partner dose 0.4 µM)",42.7%,114%,109%,59.7%,88.2%,17.8%,111%,105%,103%,94.9%,102%,101%,81.1%,120%
"Cc1ccc(Nc2nccc(N(C)c3ccc4c(C)n(C)nc4c3)n2)cc1S(N)(=O)=O [Pazopanib] + Cn1c(Nc2ccc(C(F)(F)F)cc2)nc2cc(Oc3ccnc(-c4ncc(C(F)(F)F)[nH]4)c3)ccc21 [CHIR265] (first compound 0.4 µM, partner dose 0.08 µM)",78%,80.9%,61.3%,71.2%,69.5%,98.6%,54%,51.4%,68.1%,79.7%,84%,78%,86.9%,84.7%
"O=C(/C=C/c1cccnc1)NCCCCC1CCN(C(=O)c2ccccc2)CC1 + Cn1cnc2c(F)c(Nc3ccc(Br)cc3Cl)c(C(=O)NOCCO)cc21 [selumetinib] (first compound 0.01 µM, partner dose 0.015 µM)",59.2%,93.8%,89.3%,59.8%,82.5%,60.1%,82.3%,81.6%,108%,93.1%,91.5%,91.9%,81.5%,98.6%
"O=C(/C=C/c1cccnc1)NCCCCC1CCN(C(=O)c2ccccc2)CC1 + Cn1c(Nc2ccc(C(F)(F)F)cc2)nc2cc(Oc3ccnc(-c4ncc(C(F)(F)F)[nH]4)c3)ccc21 [CHIR265] (first compound 0.01 µM, partner dose 0.08 µM)",39.5%,73.7%,73.6%,67.8%,63.5%,48.9%,56.2%,63.9%,62.1%,89.4%,69.1%,67.1%,70.8%,100%
"O=C(/C=C/c1cccnc1)NCCCCC1CCN(C(=O)c2ccccc2)CC1 + C=CCNC1=C2C[C@@H](C)C[C@H](OC)[C@H](O)[C@@H](C)/C=C(\C)[C@H](OC(N)=O)[C@@H](OC)/C=C\C=C(/C)C(=O)NC(=CC1=O)C2=O [Tanespimycin] (first compound 0.01 µM, partner dose 0.002 µM)",45.9%,93.9%,94.3%,45.8%,103%,40%,86.1%,101%,90.6%,110%,90.6%,94.1%,81.8%,119%
"Cc1ccc(Nc2nccc(N(C)c3ccc4c(C)n(C)nc4c3)n2)cc1S(N)(=O)=O [Pazopanib] + C#Cc1cccc(Nc2ncnc3cc(OCCOC)c(OCCOC)cc23)c1 [erlotinib] (first compound 0.4 µM, partner dose 0.8 µM)",70.3%,95.4%,64.1%,98.2%,98.6%,93.1%,68.2%,92.7%,92.2%,80.6%,89.5%,95.6%,107%,94.5%
"Cc1ccc(Nc2nccc(N(C)c3ccc4c(C)n(C)nc4c3)n2)cc1S(N)(=O)=O [Pazopanib] + Cn1cnc2c(F)c(Nc3ccc(Br)cc3Cl)c(C(=O)NOCCO)cc21 [selumetinib] (first compound 0.4 µM, partner dose 0.015 µM)",105%,94.9%,86.4%,87.2%,93.5%,98.1%,114%,85.9%,101%,109%,86.6%,58.4%,81.2%,129%
"Cc1ccc(Nc2nccc(N(C)c3ccc4c(C)n(C)nc4c3)n2)cc1S(N)(=O)=O [Pazopanib] + COCC[n+]1c2c(n(Cc3cnccn3)c1C)C(=O)c1ccccc1C2=O [YM155] (first compound 0.4 µM, partner dose 0.0004 µM)",44.1%,123%,96.9%,103%,84.1%,101%,68.6%,95.4%,95.9%,85.3%,92.4%,107%,92.7%,75.9%
"O=C(/C=C/c1cccnc1)NCCCCC1CCN(C(=O)c2ccccc2)CC1 + Cn1sc(=O)n(Cc2ccccc2)c1=O [TDZD-8] (first compound 0.01 µM, partner dose 0.4 µM)",49.1%,102%,83.5%,36.5%,102%,35.4%,122%,108%,94%,98.3%,114%,112%,102%,105%
"O=C(/C=C/c1cccnc1)NCCCCC1CCN(C(=O)c2ccccc2)CC1 + Nc1ncn([C@H]2C[C@H](O)[C@@H](CO)O2)c(=O)n1 [decitabine] (first compound 0.01 µM, partner dose 0.1 µM)",35.6%,105%,88.2%,65.3%,92.3%,38.9%,117%,79.2%,84.3%,79%,102%,114%,80.2%,92.2%
"CC1(C)CCC(c2ccc(Cl)cc2)=C(CN2CCN(c3ccc(C(=O)NS(=O)(=O)c4ccc(N[C@H](CCN5CCOCC5)CSc5ccccc5)c(S(=O)(=O)C(F)(F)F)c4)cc3)CC2)C1 + CN1CCN(c2ccc3nc(-c4c(N)c5c(F)cccc5[nH]c4=O)[nH]c3c2)CC1 [Dovitinib] (first compound 0.4 µM, partner dose 0.1 µM)",90.3%,68.2%,61.1%,77.6%,92.4%,89.8%,56.9%,94.7%,81.6%,80.8%,8.97%,81.2%,88.1%,87.8%
"CC1(C)CCC(c2ccc(Cl)cc2)=C(CN2CCN(c3ccc(C(=O)NS(=O)(=O)c4ccc(N[C@H](CCN5CCOCC5)CSc5ccccc5)c(S(=O)(=O)C(F)(F)F)c4)cc3)CC2)C1 + Cn1sc(=O)n(Cc2ccccc2)c1=O [TDZD-8] (first compound 0.4 µM, partner dose 0.4 µM)",91.9%,75.6%,55.9%,69.8%,84.8%,86.5%,84.9%,88.3%,87.3%,70.2%,13.5%,85.6%,96.9%,82.6%
"O=C(/C=C/c1cccnc1)NCCCCC1CCN(C(=O)c2ccccc2)CC1 + NC1(c2ccc(-c3nc4ccn5c(=O)[nH]nc5c4cc3-c3ccccc3)cc2)CCC1 [MK2206] (first compound 0.01 µM, partner dose 0.4 µM)",36.1%,83%,110%,44.9%,79.5%,55.5%,85%,91.8%,76.4%,87.6%,83.6%,79.6%,72.2%,113%
"CC1(C)CCC(c2ccc(Cl)cc2)=C(CN2CCN(c3ccc(C(=O)NS(=O)(=O)c4ccc(N[C@H](CCN5CCOCC5)CSc5ccccc5)c(S(=O)(=O)C(F)(F)F)c4)cc3)CC2)C1 + Clc1ccc(Nc2nnc(Cc3ccncc3)c3ccccc23)cc1 [vatalanib] (first compound 0.4 µM, partner dose 2 µM)",90.5%,47.8%,47.6%,92.2%,73.1%,83.5%,67.4%,86.1%,71.2%,71.2%,7.98%,74.7%,75.6%,64.7%
"CC1(C)CCC(c2ccc(Cl)cc2)=C(CN2CCN(c3ccc(C(=O)NS(=O)(=O)c4ccc(N[C@H](CCN5CCOCC5)CSc5ccccc5)c(S(=O)(=O)C(F)(F)F)c4)cc3)CC2)C1 + CC(C)C[C@H](NC(=O)[C@H](Cc1ccccc1)NC(=O)c1cnccn1)B(O)O [Bortezomib] (first compound 0.4 µM, partner dose 0.001 µM)",83%,59.7%,49.1%,41.2%,88.5%,87.4%,36.7%,88.2%,73.6%,17%,4.66%,74.4%,9.75%,76.4%
"CC1(C)CCC(c2ccc(Cl)cc2)=C(CN2CCN(c3ccc(C(=O)NS(=O)(=O)c4ccc(N[C@H](CCN5CCOCC5)CSc5ccccc5)c(S(=O)(=O)C(F)(F)F)c4)cc3)CC2)C1 + COCC[n+]1c2c(n(Cc3cnccn3)c1C)C(=O)c1ccccc1C2=O [YM155] (first compound 0.4 µM, partner dose 0.0004 µM)",44.7%,59%,32.3%,48.7%,93.6%,70.3%,60.4%,84.8%,83.6%,66.4%,9.39%,95.9%,66.5%,59.1%
"CC1(C)CCC(c2ccc(Cl)cc2)=C(CN2CCN(c3ccc(C(=O)NS(=O)(=O)c4ccc(N[C@H](CCN5CCOCC5)CSc5ccccc5)c(S(=O)(=O)C(F)(F)F)c4)cc3)CC2)C1 + C[C@@H](Oc1cc(-c2cnn(C3CCNCC3)c2)cnc1N)c1c(Cl)ccc(F)c1Cl [Crizotinib] (first compound 0.4 µM, partner dose 0.2 µM)",92%,72.2%,64.8%,58%,117%,90%,77.2%,101%,88.3%,91.4%,9.38%,77.6%,104%,89.9%
"Cc1ccc(Nc2nccc(N(C)c3ccc4c(C)n(C)nc4c3)n2)cc1S(N)(=O)=O [Pazopanib] + C[C@@H](N)c1ccc(C(=O)Nc2ccnc3[nH]ccc23)cc1 [RKI983] (first compound 0.4 µM, partner dose 0.4 µM)",48.4%,85.8%,81.3%,45.2%,59.9%,92.6%,103%,84.6%,112%,51.1%,111%,103%,104%,104%
